# Assay results from publication PMC12136788.
# This is one part of the list.
# T1: UNK ZnF1-6 (called full-length) (human, UniProt Q9C0B0 30-357)
# T1 sequence: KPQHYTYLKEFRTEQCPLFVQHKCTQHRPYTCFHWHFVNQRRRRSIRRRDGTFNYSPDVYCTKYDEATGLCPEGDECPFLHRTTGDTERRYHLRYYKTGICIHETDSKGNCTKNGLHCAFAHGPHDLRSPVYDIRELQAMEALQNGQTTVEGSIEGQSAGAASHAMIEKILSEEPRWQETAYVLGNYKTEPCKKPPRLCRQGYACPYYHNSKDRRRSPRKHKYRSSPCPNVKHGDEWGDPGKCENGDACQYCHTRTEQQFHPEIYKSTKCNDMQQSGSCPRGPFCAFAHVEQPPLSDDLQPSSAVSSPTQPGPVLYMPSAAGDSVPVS
# B1: chr4:17704999:17705206:-|CDS|ENSG00000047662|control|control|control (ssRNA)
# RNA: GGGAGUUCUACAGUCCGACGAUCAAUCAAACAUCAGACAGAAGAGGAGAAGAAACAUCUCAAAGACCAGCUAGUGAAGCGACUAGAAGACUUGGUAAAGAAGCACACCGUGGAAAUCAAAUCCGUUCGCUCGUCCGUGGAGGCCAACAGAGGAUUGAGCAUCA
# B2: ENSG00000120451:stop:overlap|stop_codon|ENSG00000120451|stop_codon|NA|stop_codon (ssRNA)
# RNA: GGGAGUUCUACAGUCCGACGAUCCUGCUACCACCUCUGCCUCAGAUACCCCAGGCAACUCUAAGAGGAUGGGUGUCUCCUCUUAGCUGGUUAUUCACGCCUUCUUCCCAGGUCAGGGAAGUAGAGUUACUCGGCCACCAGAGACAACAGAGGAUUGAGCAUCA
# B3: chr2:120222042:120222143:-|CDS|ENSG00000226479|msi1|total|mutant (ssRNA)
# RNA: GGGAGUUCUACAGUCCGACGAUCGAAAUUUUCCCAUUUUUAAGAGAAUAUGGGAACAUUUCAUAUGAUCUCCAUCACGAAGACCGUGAAGAUGCUGAAGAAACAUCAGUUCCAGAAGCUCCGAAAAUUGCUCCAAUAUUUGGACAACAGAGGAUUGAGCAUCA
# B4: chr14:53038166:53038268:-|3pUTR|ENSG00000100523|unk|FALSE|unique (ssRNA)
# RNA: GGGAGUUCUACAGUCCGACGAUCGAGCUUUUGGCAGAGUCUUCGGGGUUUUCUAGGUAUAAAAUCAUAUCAGCGAAGAGAGCUAGUUUGAUUUCUUUUCCCAGUUGGAUGCCUUUUAUUUAUUUCUCUUGCCUGAUUGCUCUACAACAGAGGAUUGAGCAUCA
# B5: chr5:160402147:160402258:-|3pUTR|ENSG00000164609|unk|total|mutant (ssRNA)
# RNA: GGGAGUUCUACAGUCCGACGAUCAUGGUUUACAUUACCGUUUGUUUUCAUUGUGAUUGCCCCUAUGUAACAAUCAUGAAUAUCCGAUUUUUUAAAUUGCCGAAUAUCCUAAUAUUUACCGCCAGCAGCUGUUACUUUGUUUGUCAACAGAGGAUUGAGCAUCA
# B6: ENSG00000105355:stop:overlap|stop_codon|ENSG00000105355|stop_codon|NA|stop_codon (ssRNA)
# RNA: GGGAGUUCUACAGUCCGACGAUCCGUGGCUCGUGGGACCCUUUGCCCCUGGAAUCACUGAGAAAGCCCCGGAGGAGAAGAAGUAGGGGGAGAGGAGAGGACUCAGCGGGCCCCGUCUCUAUAAUGCAGCUGUGCUCUGGAGUCCAACAGAGGAUUGAGCAUCA
# B7: ENSG00000143799:stop:overlap|stop_codon|ENSG00000143799|stop_codon|NA|stop_codon (ssRNA)
# RNA: GGGAGUUCUACAGUCCGACGAUCACCAGCAGAAAGUCAAGAAGACAGCGGAAGCUGGAGGAGUGACAGAAAAGAAGCUCUAUUAGCUGACCACGGUUGUUACAAACAGACAGAUGAGAUGGACCAAUCGUAGUCUCCCAAGGCCAACAGAGGAUUGAGCAUCA
# B8: chr11:95166718:95166819:-|3pUTR|ENSG00000149212|unk|total|mutant (ssRNA)
# RNA: GGGAGUUCUACAGUCCGACGAUCACAGUUUCCCCUUCCUCUUUCUCUUCACAUUUACUCUUUUCAACCCAAAAUAAGAGACACCGAAAGCAAACCACAGCCAGUUUGGCAUCUUCUCAGUGCUACCCGUACCGGCACAUACACCAACAGAGGAUUGAGCAUCA
# B9: chr2:43888187:43888297:-|3pUTR|ENSG00000138095|unk|FALSE|unique (ssRNA)
# RNA: GGGAGUUCUACAGUCCGACGAUCAAAAUGUUAUUCCUUUAUUUAAGAUUCACUUAUUAGUCUGCUGUUUCUCUGAAAAAUUUUAGAGCUAGGUAUAGUGACCGUGAACUUUCUAACGCAUAAUAUUCUGUGAUACAGCCAUUCCAACAGAGGAUUGAGCAUCA
# B10: chr8:23842320:23842421:-|3pUTR|ENSG00000159167|msi1|FALSE|unique (ssRNA)
# RNA: GGGAGUUCUACAGUCCGACGAUCUAUGUAUCUACAAUACAUAUAUCUACACAUACAGAAAGAAGCAGUUCUCACAAUGUUGCUAGUUUUUUGCUUCUCUUUCCCCCACCCUACUCCCUCCAAUUCCCCCUUAAACUUCCAAAGCAACAGAGGAUUGAGCAUCA
# B11: chr10:91630394:91630495:-|CDS|ENSG00000119938|unk|FALSE|unique (ssRNA)
# RNA: GGGAGUUCUACAGUCCGACGAUCCUUGGACCUUAAUGAUAUCUCCUCUGCCUUAAAACACCACGAGGAGAAAAACUUGAUUUUAGAUUUCCCUCAGCCUUCAACCGAUUACUUAAGUUUCCGGAGCCACUUUCAGAAGAACUUCAACAGAGGAUUGAGCAUCA
# B12: ENSG00000026025:stop:overlap|stop_codon|ENSG00000026025|stop_codon|NA|stop_codon (ssRNA)
# RNA: GGGAGUUCUACAGUCCGACGAUCUGGCCCUUGACAUUGAGAUUGCCACCUACAGGAAGCUGCUGGAAGGCGAGGAGAGCAGGUAGGGAACUCAGACUUGGAUGCGUGAACUAAUGGUGACCAUUUGUUAGGCCCUGUGCCACUCAACAGAGGAUUGAGCAUCA
# B13: chr17:77216858:77216994:+|3pUTR|ENSG00000129657|unk|total|mutant (ssRNA)
# RNA: GGGAGUUCUACAGUCCGACGAUCUGUUUCUACCUUCCGUACCUUGCCACUCUUUUAAAACGCUGCUGUCAUUUCCCAUUUCUCCGUACUAAUGAUUCUUUGAUUCUCCCUCUAUUAUGUCUUAAUUCACUUUCCUUCCUAAAUCAACAGAGGAUUGAGCAUCA
# B14: ENSG00000149294:stop:overlap|stop_codon|ENSG00000149294|stop_codon|NA|stop_codon (ssRNA)
# RNA: GGGAGUUCUACAGUCCGACGAUCCUGCAUCCUACACCUUUGUCUCAUUGCUUUUCUCUGCAGUGACUCUUCUUUUGCUCUGUUAGGAACUUGAACACAAAAAUUAAAUUUGCUUAAAAGCCCAGUUCCUAUGAAAAAGAUCAGCAACAGAGGAUUGAGCAUCA
# Molecular target: T1, UNK ZnF1-6 (called full-length)
# Assay: nsRBNS (natural sequence RNA bind-n-seq); RBNS binding buffer (assumed for nsRBNS): 25 mM Tris pH 7.5, 150 mM KCl, 3 mM MgCl2, 0.01% Triton X-100, 500 ug/ml BSA, 20 U/ml SUPERase-In, 4 C; UNK is unkempt and MSI1 is Musashi-1; names of the RNAs are library labels; protein concentration not given here; high values mean tight binding
row,Binder,binding signal [enrichment R]
1,B1,0.563
2,B2,0.576
3,B3,0.129
4,B4,0.751
5,B5,0.576
6,B6,0.818
7,B7,0.582
8,B8,0.728
9,B9,0.954
10,B10,0.759
11,B11,0.264
12,B12,0.962
13,B13,1.58
14,B14,1.32
